Assay results: patent US10618965 (dated 2020)
Like-named read-outs stand apart in the source and are kept apart here.

Key:
[1] = target: human FcRn (with beta2-microglobulin) (human); assay: SPR, pH 7.0
[2] = target: human FcRn (with beta2-microglobulin) (human); assay: SPR, pH 7.0; remark: listed apart in the source

binding result [1]	binding result [2]	Binder
no binding	–	F760 (antibody) chain 1: QVQLQESGPGLVKPSETLSLTCAVSGHSISHDHAWSWVRQPPGEGLEWIGFISYSGITNYNPSLQGRVTISRDNSKNTLYLQMNSLRAEDTAVYYCARSLARTTAMDYWGEGTLVTVSS[here human IgG1 constant region with L235R S239K (EU numbers) without letters] chain 2: DIQMTQSPSSLSASVGDRVTITCRASQDISSYLNWYQQKPGKAPKLLIYYTSRLHSGVPSRFSGSGSGTDFTFTISSLQPEDIATYYCQQGNTLPYTFGQGTKVEIKRTVAAPSVFIFPPSDEQLKSGTASVVCLLNNFYPREAKVQWKVDNALQSGNSQESVTEQDSKDSTYSLSSTLTLSKADYEKHKVYACEVTHQGLSSPVTKSFNRGEC
–	no binding	IgG4 (antibody) chain 1: QVQLQESGPGLVKPSETLSLTCAVSGHSISHDHAWSWVRQPPGEGLEWIGFISYSGITNYNPSLQGRVTISRDNSKNTLYLQMNSLRAEDTAVYYCARSLARTTAMDYWGEGTLVTVSSASTKGPSVFPLAPCSRSTSESTAALGCLVKDYFPEPVTVSWNSGALTSGVHTFPAVLQSSGLYSLSSVVTVPSSSLGTKTYTCNVDHKPSNTKVDKRV[here human IgG4 Fc with S228P (EU numbers) without letters] chain 2: DIQMTQSPSSLSASVGDRVTITCRASQDISSYLNWYQQKPGKAPKLLIYYTSRLHSGVPSRFSGSGSGTDFTFTISSLQPEDIATYYCQQGNTLPYTFGQGTKVEIKRTVAAPSVFIFPPSDEQLKSGTASVVCLLNNFYPREAKVQWKVDNALQSGNSQESVTEQDSKDSTYSLSSTLTLSKADYEKHKVYACEVTHQGLSSPVTKSFNRGEC
